# Assay results: the antibiotic and cytotoxicity screens of Wong et al. (2023)
# The other results are listed elsewhere or left out.
# Test system: HSkMC (human skeletal muscle cells)
# Test: cytotoxicity call (relative viability < 0.9)
# Conditions: 10 µM
row,Structure (SMILES),cytotoxicity call
1,C[C@H]1CN([C@@H](C)CO)C(=O)Cc2cc(NC(=O)Nc3ccccc3)ccc2O[C@@H]1CN(C)C(=O)Nc1ccc(C(F)(F)F)cc1,inactive
2,C[C@@H]1CN([C@@H](C)CO)C(=O)c2cc(NC(=O)CCC(F)(F)F)ccc2O[C@@H](C)CCCCO[C@H]1CN(C)Cc1ccc(Cl)c(Cl)c1,inactive
3,COc1ccc(NC(=O)Nc2cccc3c2O[C@H](CN(C)C(=O)Nc2cccc4ccccc24)[C@@H](C)CN([C@@H](C)CO)C3=O)cc1,inactive
4,CCOC(=O)c1cn[nH]c1N,inactive
5,Nc1ccon1,inactive
6,CCCN(C)C[C@H]1OCCCC[C@H](C)Oc2ccc(NC(=O)Cc3ccccc3)cc2C(=O)N([C@@H](C)CO)C[C@H]1C,inactive
7,O=C(C[C@H]1CC[C@H]2[C@@H](COC[C@@H](O)CN2Cc2cccc(C(F)(F)F)c2)O1)NCCc1ccncc1,inactive
8,Cc1cc(C(=O)Nc2cccc3c2O[C@H](CN(C)C(=O)Nc2ccccc2)[C@H](C)CN([C@@H](C)CO)C3=O)n(C)n1,inactive
9,CCNC(=S)N1CCCC[C@@H]1CO,inactive
10,C[C@@H]1CN([C@@H](C)CO)C(=O)CCCn2cc(nn2)CO[C@@H]1CN(C)S(=O)(=O)c1ccc2ccccc2c1,inactive
11,C[C@H]1CN([C@@H](C)CO)C(=O)c2cccc(NC(=O)Nc3ccccc3)c2O[C@@H]1CN(C)CC1CCCCC1,inactive
